Laboratory results from the supplement of paper PMC10126150.
Values marked as one replicate rest on one cluster of the flow cell; about a third of the high ones do not repeat.

test system: ATP; experiment: switch fluorescence ratio, 500 uM ATP over buffer (Cy3 cluster intensity, sum of 5 cycles each) (fold (ratio)); higher = stronger signal-on switching upon ATP binding; sequences stand for … in TCGTCGGCAGCGTCAGATGTGTATAAGAGACAGTTTTTTTTTTTTTTTTTTTTTTTTT…TC; settings: aptamer strand: ATP DNA aptamer (quencher-CACCTGGGGGAGTATTGCGGAGGAAGG + anchor), 100 nM annealed; ATP concentration: 500 uM; one replicate
Summary of the method: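 Switching-strand clusters labelled with Cy3 on a modified Illumina MiSeq flow-cell were annealed to 100 nM quencher-labelled ATP aptamer, imaged in selection buffer, and re-imaged after 15 min with 500 uM ATP at 22 °C. This was done over five cycles with NaOH stripping and re-annealing in between. The fluorescence ratio is summed target-cycle over summed buffer-cycle Cy3 intensity per cluster, averaged per switch-domain sequence, excluding clusters outside 100-1000 RFU.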
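Further: ATP exposure 15 min at 22 °C before imaging.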

Q: How did the switch fluorescence ratio turn out when GGAATGGACT was run?
A: 1.02

Q: For GGAATTCCGG, which switch fluorescence ratio is on record?
A: 1.02

Q: How did the switch fluorescence ratio turn out when GGAATTGATC was run?
A: 0.973

Q: For GGAATTTGTC, which switch fluorescence ratio is on record?
A: 0.947

Q: With GGACACTTTG as the sequence, how does the switch fluorescence ratio read?
A: 1.05

Q: Which switch fluorescence ratio does the source give for GGACAGAGAC here?
A: 1.07

Q: With GGACAGCGGG as the sequence, how does the switch fluorescence ratio read?
A: 0.99

Q: With GGACATAGCG as the sequence, how does the switch fluorescence ratio read?
A: 1.05

Q: GGACATTCAG was tested. Which switch fluorescence ratio did it give?
A: 1.01

Q: How did the switch fluorescence ratio turn out when GGACCATCGT was run?
A: 1.01

Q: How did the switch fluorescence ratio turn out when GGACCATTAG was run?
A: 1.01

Q: With GGACCCCG as the sequence, how does the switch fluorescence ratio read?
A: 0.874

Q: With GGACCGCCCG as the sequence, how does the switch fluorescence ratio read?
A: 1.02

Q: For GGACCTCAGT, which switch fluorescence ratio is on record?
A: 0.984

Q: For GGACGAATA, which switch fluorescence ratio is on record?
A: 1.01

Q: With GGACGAATTA as the sequence, how does the switch fluorescence ratio read?
A: 1.04

Q: Which switch fluorescence ratio does the source give for GGACGACTTT here?
A: 1.02

Q: GGACGATTTT was tested. Which switch fluorescence ratio did it give?
A: 0.955

Q: For GGACGCAGCC, which switch fluorescence ratio is on record?
A: 1.5

Q: How did the switch fluorescence ratio turn out when GGACGCGATT was run?
A: 2.43

Q: Which switch fluorescence ratio does the source give for GGACGCGCGG here?
A: 1.01

Q: With GGACGGCCTT as the sequence, how does the switch fluorescence ratio read?
A: 1.03

Q: With GGACGTCCAG as the sequence, how does the switch fluorescence ratio read?
A: 0.98

Q: GGACGTGGTG was tested. Which switch fluorescence ratio did it give?
A: 0.961

Q: How did the switch fluorescence ratio turn out when GGACTAACAG was run?
A: 0.881

Q: For GGACTACAAT, which switch fluorescence ratio is on record?
A: 0.979

Q: For GGACTAGACG, which switch fluorescence ratio is on record?
A: 1.02

Q: Which switch fluorescence ratio does the source give for GGACTAGGCT here?
A: 1.01

Q: Which switch fluorescence ratio does the source give for GGACTATCAG here?
A: 1

Q: With GGACTCGATA as the sequence, how does the switch fluorescence ratio read?
A: 1.05

Q: GGACTCGGC was tested. Which switch fluorescence ratio did it give?
A: 0.918

Q: For GGACTGAGT, which switch fluorescence ratio is on record?
A: 0.982

Q: For GGACTGGGGC, which switch fluorescence ratio is on record?
A: 1.01

Q: With GGACTGTATT as the sequence, how does the switch fluorescence ratio read?
A: 1.1

Q: How did the switch fluorescence ratio turn out when GGACTTATTG was run?
A: 0.972

Q: GGACTTGTGT was tested. Which switch fluorescence ratio did it give?
A: 1

Q: For GGAGAACGCC, which switch fluorescence ratio is on record?
A: 1.07

Q: How did the switch fluorescence ratio turn out when GGAGAATGGT was run?
A: 0.997

Q: GGAGACAACA was tested. Which switch fluorescence ratio did it give?
A: 1

Q: With GGAGACGGAG as the sequence, how does the switch fluorescence ratio read?
A: 1.02

Q: How did the switch fluorescence ratio turn out when GGAGAGACCG was run?
A: 1.03

Q: For GGAGAGCGGA, which switch fluorescence ratio is on record?
A: 0.958

Q: With GGAGAGGCAA as the sequence, how does the switch fluorescence ratio read?
A: 1.11

Q: GGAGATAACG was tested. Which switch fluorescence ratio did it give?
A: 0.981

Q: How did the switch fluorescence ratio turn out when GGAGATGTTT was run?
A: 1.02

Q: With GGAGATTGAC as the sequence, how does the switch fluorescence ratio read?
A: 1.07

Q: Which switch fluorescence ratio does the source give for GGAGCAAAAG here?
A: 1.49

Q: How did the switch fluorescence ratio turn out when GGAGCATTGG was run?
A: 1.22

Q: For GGAGCCATTA, which switch fluorescence ratio is on record?
A: 1.08

Q: GGAGCCGTTG was tested. Which switch fluorescence ratio did it give?
A: 0.971

Q: For GGAGCCTCTC, which switch fluorescence ratio is on record?
A: 1.01

Q: With GGAGCGAATA as the sequence, how does the switch fluorescence ratio read?
A: 4.6

Q: Which switch fluorescence ratio does the source give for GGAGCGGGAA here?
A: 1.12

Q: GGAGCTGGGT was tested. Which switch fluorescence ratio did it give?
A: 1.04

Q: How did the switch fluorescence ratio turn out when GGAGGAAGTG was run?
A: 0.981

Q: For GGAGGGCATT, which switch fluorescence ratio is on record?
A: 1.05

Q: GGAGGGCGCC was tested. Which switch fluorescence ratio did it give?
A: 0.986

Q: GGAGGGCGGA was tested. Which switch fluorescence ratio did it give?
A: 1.05

Q: With GGAGGGTCAG as the sequence, how does the switch fluorescence ratio read?
A: 0.945

Q: How did the switch fluorescence ratio turn out when GGAGGGTCTC was run?
A: 1.01

Q: How did the switch fluorescence ratio turn out when GGAGGGTCTT was run?
A: 0.98

Q: Which switch fluorescence ratio does the source give for GGAGGTCAGT here?
A: 0.984

Q: For GGAGGTTTGC, which switch fluorescence ratio is on record?
A: 1

Q: How did the switch fluorescence ratio turn out when GGAGTAGGGC was run?
A: 0.887

Q: For GGAGTAGGGG, which switch fluorescence ratio is on record?
A: 0.935

Q: For GGAGTAGTAG, which switch fluorescence ratio is on record?
A: 1.08

Q: How did the switch fluorescence ratio turn out when GGAGTCACCT was run?
A: 1.14

Q: For GGAGTCGCCG, which switch fluorescence ratio is on record?
A: 0.931

Q: Which switch fluorescence ratio does the source give for GGAGTCTCTT here?
A: 1

Q: For GGAGTCTGTG, which switch fluorescence ratio is on record?
A: 0.965

Q: For GGAGTGGGAG, which switch fluorescence ratio is on record?
A: 0.994

Q: Which switch fluorescence ratio does the source give for GGAGTGGTAA here?
A: 1.65

Q: For GGAGTGTGAG, which switch fluorescence ratio is on record?
A: 1.01

Q: How did the switch fluorescence ratio turn out when GGAGTTCACT was run?
A: 0.987

Q: Which switch fluorescence ratio does the source give for GGAGTTGCAT here?
A: 0.96

Q: Which switch fluorescence ratio does the source give for GGATAAATCA here?
A: 1.02

Q: For GGATAAGAGC, which switch fluorescence ratio is on record?
A: 1.07

Q: GGATAATTAA was tested. Which switch fluorescence ratio did it give?
A: 0.995

Q: With GGATACCGTG as the sequence, how does the switch fluorescence ratio read?
A: 1.01

Q: Which switch fluorescence ratio does the source give for GGATACGAGG here?
A: 1.03

Q: Which switch fluorescence ratio does the source give for GGATACGTAA here?
A: 1.18

Q: With GGATACTTTG as the sequence, how does the switch fluorescence ratio read?
A: 0.995

Q: With GGATAGAATG as the sequence, how does the switch fluorescence ratio read?
A: 1.02

Q: How did the switch fluorescence ratio turn out when GGATAGGT was run?
A: 1.01

Q: GGATAGTAGC was tested. Which switch fluorescence ratio did it give?
A: 1.03

Q: GGATCCATTA was tested. Which switch fluorescence ratio did it give?
A: 0.968

Q: Which switch fluorescence ratio does the source give for GGATCGCTCC here?
A: 1.01

Q: With GGATCTACTC as the sequence, how does the switch fluorescence ratio read?
A: 1.06

Q: For GGATGAAGGT, which switch fluorescence ratio is on record?
A: 0.961

Q: GGATGCCAG was tested. Which switch fluorescence ratio did it give?
A: 0.971

Q: With GGATGCCTTA as the sequence, how does the switch fluorescence ratio read?
A: 1

Q: Which switch fluorescence ratio does the source give for GGATGCGT here?
A: 0.957

Q: Which switch fluorescence ratio does the source give for GGATGGACTT here?
A: 1.03

Q: How did the switch fluorescence ratio turn out when GGATGGAGAC was run?
A: 1.02

Q: How did the switch fluorescence ratio turn out when GGATGGCTAA was run?
A: 0.985

Q: For GGATGGGAGT, which switch fluorescence ratio is on record?
A: 0.98

Q: GGATGGTTG was tested. Which switch fluorescence ratio did it give?
A: 0.952

Q: GGATGTAGCT was tested. Which switch fluorescence ratio did it give?
A: 0.95

Q: Which switch fluorescence ratio does the source give for GGATTACTGT here?
A: 0.943

Q: GGATTATAAA was tested. Which switch fluorescence ratio did it give?
A: 0.986

Q: With GGATTATAGG as the sequence, how does the switch fluorescence ratio read?
A: 1
